Source: publication PMC4336329 (PLoS ONE, 2015)
Screen size: about 310,000 compounds; about 2,200 (0.71%) showed an effect of 50% or more. Effects have a minus sign here. Some of the results follow. Where a SMILES comes first, the peptide text is derived from it. The star is where a group is joined. Boc = CC(C)(C)OC(=O)*

Molecular target: human ether-à-go-go-related gene (hERG) potassium channel (human, UniProt Q12809)
Assay: primary screen, population patch clamp on CHO cells stably expressing hERG

Chain of human ether-à-go-go-related gene (hERG) potassium channel (Q12809 whole entry, looked up): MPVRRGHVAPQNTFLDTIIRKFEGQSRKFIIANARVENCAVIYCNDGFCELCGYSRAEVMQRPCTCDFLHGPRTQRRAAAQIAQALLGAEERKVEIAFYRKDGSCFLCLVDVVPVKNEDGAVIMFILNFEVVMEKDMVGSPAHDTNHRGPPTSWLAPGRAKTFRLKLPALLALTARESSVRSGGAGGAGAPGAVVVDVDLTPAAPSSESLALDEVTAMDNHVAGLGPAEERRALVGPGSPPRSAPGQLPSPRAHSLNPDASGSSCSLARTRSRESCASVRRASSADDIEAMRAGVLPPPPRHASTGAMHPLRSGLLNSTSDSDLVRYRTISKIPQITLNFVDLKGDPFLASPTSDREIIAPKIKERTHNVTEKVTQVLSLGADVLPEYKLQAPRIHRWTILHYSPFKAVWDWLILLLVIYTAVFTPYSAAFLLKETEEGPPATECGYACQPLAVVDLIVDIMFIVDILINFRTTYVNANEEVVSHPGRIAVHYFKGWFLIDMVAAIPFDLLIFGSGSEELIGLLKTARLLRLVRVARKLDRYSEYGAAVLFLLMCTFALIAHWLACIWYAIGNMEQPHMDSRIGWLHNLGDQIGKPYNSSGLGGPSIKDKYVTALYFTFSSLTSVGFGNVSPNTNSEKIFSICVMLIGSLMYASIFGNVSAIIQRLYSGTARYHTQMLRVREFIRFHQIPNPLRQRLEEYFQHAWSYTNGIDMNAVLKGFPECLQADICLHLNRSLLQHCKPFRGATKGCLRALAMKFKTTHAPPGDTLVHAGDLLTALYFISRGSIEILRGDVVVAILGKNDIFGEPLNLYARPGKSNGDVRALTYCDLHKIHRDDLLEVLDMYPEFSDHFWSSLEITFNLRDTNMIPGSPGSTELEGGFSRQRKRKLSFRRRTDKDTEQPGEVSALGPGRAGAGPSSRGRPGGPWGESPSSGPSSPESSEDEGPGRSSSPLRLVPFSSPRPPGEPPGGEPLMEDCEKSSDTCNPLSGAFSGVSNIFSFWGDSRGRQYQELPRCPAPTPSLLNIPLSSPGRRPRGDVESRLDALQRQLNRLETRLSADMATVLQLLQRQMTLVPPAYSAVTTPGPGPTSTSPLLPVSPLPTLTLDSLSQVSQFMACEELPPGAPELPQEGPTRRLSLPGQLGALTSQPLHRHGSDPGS

SMILES | hERG current change (%, negative = inhibition) at 1uM
Cc1ccc(C)c(OCCCCn2cnc3ccccc3c2=O)c1 | 7.56%
CNC(=S)N(Cc1ccc(OC)cc1)C1CC(=O)N(c2ccc(OC)cc2)C1=O (stereo not drawn) | -13.3%
O=C(CNC(=O)c1ccc(Br)cc1)NCC(=O)OCC(=O)c1ccc(F)cc1 | 13.9%
CCN(Cc1ccccc1)C(=O)CSc1ccccc1C(=O)O | 13.6%
Cc1cc(OCCNCCO)cc(C)c1Cl | -7.14%
Cc1ccc(S(=O)(=O)NCc2cccnc2)cc1C(=O)N1CCCC1 | 13.4%
CC(C)c1c(C(=O)N/N=C/c2ccco2)nnn1-c1nonc1N | 10%
Cc1nnc(SCC(=O)O)s1 | 3.78%
CC(=O)c1c(C)[nH]c(C(=O)Nc2cc(S(=O)(=O)N3CCCCC3)ccc2C)c1C | 10.1%
O=C(CSc1nnc(-c2ccco2)o1)c1ccc(O)cc1O | 10.6%
Cc1cccnc1NC(=O)CNC(=O)c1ccccc1 | 6.71%
CCOC(=O)Cn1c(-c2cccnc2Cl)nc2ccccc21 | 12.9%
CC(C)CN(C(=O)C1CC1)C1CCS(=O)(=O)C1 (stereo not drawn) | -0.949%
CCOC(=O)c1cc(C)nn1-c1nc(Cl)cc(OC)n1 | -0.348%
CCOC(=O)C(NC(=O)c1ccccc1)(OCc1ccccc1)C(F)(F)F (stereo not drawn) | 2.21%
Cc1ccc(C)c(S(=O)(=O)NCC(=O)NCc2ccco2)c1 | 4.55%
CCCC(c1nnnn1CCOC)N1CCN(c2nc3ccccc3s2)CC1 (stereo not drawn) | -18%
N#Cc1ccc(/C=N/NC(=S)Nc2ccc(S(=O)(=O)N3CCOCC3)cc2)cc1 | 4.43%
CCC(C)C(NC(=O)c1ccccc1NC(=O)c1ccc(OC)cc1)C(=O)NCc1ccco1 (stereo not drawn) | 10.6%
O=C(Cc1c[nH]c2ccccc12)NCC(=O)Nc1ccc(F)c(F)c1F | 9.26%
COc1cc2ccccc2cc1C(=O)N1CCN(c2ccccn2)CC1 | -3.96%
COc1ccc(-n2cc(CNCCc3nc(C)cc(C)n3)c(-c3ccccc3Cl)n2)cc1 | -1.55%
Cc1ccc(S(=O)(=O)N2CCCC(C(=O)NCc3ccccc3F)C2)cc1 (stereo not drawn) | 22.8%

SMILES | hERG current change (%, negative = inhibition) at 1uM
COc1ccc2cc(CO)c(Cl)nc2c1 | 13.8%
COc1ccc(NC(=O)c2ccc3snnc3c2)cc1 | 5.83%
CCOC(=O)c1ccc[n+](CC(=O)Nc2cc(C(F)(F)F)ccc2Cl)c1.[Cl-] | 10.4%
C=CCn1c(O)c(N=NC(=S)Nc2ccc(OC)c(Cl)c2)c2ccccc21 | 33.2%
Cc1[nH]c2ccccc2c1C(=O)CSc1ccc(Cl)cc1 | 15.6%
CC(C)(C)NCCCOc1ccc(Cl)cc1C(C)(C)C.O=C(O)C(=O)O | -2.84%
Clc1ccc2[nH]cc(-c3nnnn3-c3ccc4ccccc4c3)c2c1 | 19.5%
COc1ccc(CCNC(=O)CC(Cc2ccccc2)C(=O)O)cc1OC (stereo not drawn) | 10.1%
Cc1cccc([C@@H]2[C@@H]3C(=O)N(Cc4ccccc4)C(=O)[C@@H]3[C@]3(Cc4ccccc4)C(=O)N(c4ccccc4)C(=O)N23)c1 | 12%
O=C(c1cnccn1)N1CCN(S(=O)(=O)c2ccc3ccccc3c2)CC1 | 9.17%
Nc1c(C(=O)Nc2cccc(C(=O)O)c2)sc2nc3c(cc12)CCCC3 | 11.7%
COc1ccc(OC)c(S(=O)(=O)CC(O)COc2ccccc2Cl)c1 (stereo not drawn) | 12.4%
COc1ccc(CN(C#N)c2nc(SC)nc(N(C)C)n2)cc1 | 8.91%
COc1ccc(C(=O)OC(C)CN2CCOCC2)cc1.Cl (stereo not drawn) | 1.84%
Cc1csc(NC(=O)CSc2nnc(-c3cccs3)n2C)n1 | -7.02%
O=C(NCC1COc2ccccc2O1)c1cc2ccccc2o1 (stereo not drawn) | 12.3%
O=C(Cc1csc(NC(=O)Nc2cccc(Cl)c2)n1)NCc1cccnc1 | -44.2%
COc1ccc(OC)c(/C=N/NC(=O)c2cccc3ccccc23)c1 | 13.8%
CCOC(=O)C1Nc2c(F)cc(C)cc2C2C=CCC12 (stereo not drawn) | 15%
O=c1ccc(Oc2nc(N3CCOCC3)nc(N3CCOCC3)n2)n[nH]1 | 4.65%
Nc1c(C(=O)CSc2nccn2-c2ccc(Cl)cc2)c(=O)[nH]c(=O)n1C1CC1 | 15.6%
CCC(C)C(NC(=O)OC(C)(C)C)C(=O)NC(CC(C)C)C(N)=O (stereo not drawn) (Boc-Ile-Leu-NH2; configuration not given here) | 11.3%
Cc1nc(N2CCOCC2)nc2c1CCC2 | 10.2%

SMILES | hERG current change (%, negative = inhibition) at 1uM
Clc1ccc(CN2CCSCC2)cc1Cl | 15.1%
CCCOC(=O)CC1C(=O)NCCN1Cc1ccccc1C (stereo not drawn) | 13.9%
CCOc1ccc(-c2nnn(CC(=O)N3CCN(c4ccc(OC)cc4)CC3)n2)cc1OCC | 9.06%
O=C1NC(Cc2ccccc2)c2nc3cc(F)ccc3c(=O)n2-c2cc(Cl)ccc21 (stereo not drawn) | 11.9%
CCOC(=O)c1ccccc1NC(=O)c1ccc2nccnc2c1 | 0.379%
O=C(CCCc1nc2ccccc2s1)Nc1ccc(N2CCOCC2)cc1 | 26.4%
O=[N+]([O-])c1ccc([C@H](O)[C@H](CO)N=Cc2ccccc2O)cc1 | 15.5%
COc1cccc(NC(=O)Nc2c(C)n(C)n(-c3ccccc3)c2=O)c1 | 15.8%
CCCNC(=O)CCNC(=O)c1ccc(C(C)(C)C)cc1 | -7.66%
CCc1noc(C)c1C(=O)Nc1cc(S(=O)(=O)N2CCOCC2)ccc1OCC(F)(F)F | 16.7%
O=C(Cn1cnc2ccccc2c1=O)N1CCOCC1 | 6.13%
N/C(=N\OC(=O)CCCOc1ccccc1)c1ccccn1 | 9.43%
CCOc1ccc(S(=O)(=O)n2nnc3ccccc32)cc1C(C)C | 7.8%
Cc1cc(-c2csc3nc[nH]c(=S)c23)cc(C)c1C | 16.7%
O=C(NCc1ccco1)[C@@H]1CSC2c3ccccc3C(=O)N21 (stereo partly drawn) | 9.01%
CC1CCCCN1S(=O)(=O)c1cnc(Cl)c(Br)c1 (stereo not drawn) | 3.62%
CN1CCCN(Cc2nc(-c3ccc(Cl)cc3)no2)CC1 | -31.4%
COc1ccc(NS(=O)(=O)c2ccc(C)c(C(=O)NCC(c3ccco3)N(C)C)c2)cc1 (stereo not drawn) | 4.41%
O=C(NCc1ccco1)C1CCN(C(=O)c2cc3sccc3n2Cc2ccc(F)cc2)CC1 | -26.5%
O=C(NC12CC3CC(CC(C3)C1)C2)N1CCC(O)CC1 | 11.2%
CC(C)[C@H](NC(N)=O)C(=O)Nc1cccc(S(=O)(=O)N2CCOCC2)c1 | 8.72%
CCOc1ccc(CCNC(=O)C2CC(=O)N(c3ccccc3OCC)C2)cc1OCC (stereo not drawn) | 25%
Cc1c(S(=O)(=O)c2ccccn2)c(N)n(Cc2ccccc2Cl)c1C | 19.4%

SMILES | hERG current change (%, negative = inhibition) at 1uM
CCOC(=O)c1cccc(NC(=O)c2cnc3ccccc3n2)c1 | -4.01%
O=C(COc1ncnc2sccc12)NC1CCS(=O)(=O)C1 (stereo not drawn) | 11.9%
O=C(Nc1cccc(C(F)(F)F)c1)OCc1ccncc1 | 4.89%
Cc1cc(NC(=O)COC(=O)c2cc3c(s2)CCC(C)C3)no1 (stereo not drawn) | 4.79%
COc1cc(/C=C/C(=O)N2CCC=CC2=O)cc(OC)c1OC | 13.8%
CCOC(=O)N/N=C\c1ccc(OC(=O)c2ccco2)cc1 | 17.9%
CCCCn1c(N)c(N(CC(C)C)C(=O)c2cc3c(s2)CCCCC3)c(=O)[nH]c1=O | -6.57%
CCCCCC(C)n1[nH]c(=O)c2c(C)cc(C)nc21 (stereo not drawn) | 18.1%
COc1ccc(NC(=O)CCc2ccccc2)cc1NC(=O)c1ccco1 | 0.649%
Cc1ccsc1/C=N/NC(=O)c1ccncc1 | 8.31%
C[C@H](NC(=O)c1nc[nH]c1C(=O)NCC(=O)OCc1ccccc1)C(=O)OC(C)(C)C | 6.28%
Cc1c(CN2CCCC(C(=O)c3cccc(Cl)c3)C2)c(=O)n(-c2ccccc2)n1C (stereo not drawn) | 1.56%
O=C(Nc1ccc(Cl)cc1)C1C2C=CC3(O2)C1C(=O)N(CCCN1CCCCC1)C3C(=O)NC1CCCCC1 (stereo not drawn) | 4.08%
O=C(CCC1CCCC1)NCc1ccccn1 | 13.5%
COC(=O)C(C)(N)Cc1ccc(O)cc1.Cl (stereo not drawn) | 12.7%
COC(=O)C1=NN(C(C)(C)CC(C)=O)C2C(=O)N(C3CCCCC3)C(=O)C12 (stereo not drawn) | 4.56%
Cc1cc(C)n(-c2nc3nonc3nc2-n2nc(C)cc2C)n1 | 8.19%
CCN(CC(=O)NC1CCCCCC1)S(=O)(=O)c1ccccc1 | -13.9%
COc1ccc(C(=O)n2cnc3ccccc32)cc1[N+](=O)[O-] | 9.89%
COc1ccc(-n2c(C)nn(CCOc3ccccc3)c2=O)cc1 | 2.62%
O=C(O)c1ccc(NC(=O)c2cn(-c3ccccc3)nc2-c2ccc(Br)cc2)cc1 | 12.8%
